Measurements reported in article PMC4497792 (RSC advances, 2015).
Read-outs that look alike come from different tables or passages of the source.

Key:
[1] = tested on: HeLa human cervical carcinoma cells; conditions: 8 hour incubation; for reduction of lactate production (in words): 50–200 μM, normoxic
[2] = tested on: HeLa human cervical carcinoma cells; experiment: cells; conditions: 8 h, read-out: inhibition of lactate production

Row | Structure (SMILES) | reduction of lactate production (in words) [1] | further results
1 | O=CC[C@@H](O)[C@H](O)[C@H](O)CO [2-deoxyglucose, reference compound] | – | effect on lactate production (in words) ([1]; 10 mM): very modest effect
2 | COC(=O)c1cc2c(C(F)(F)F)cc(-c3ccccc3)cc2n1O[C@H]1O[C@H](CO)[C@@H](O)[C@H](O)[C@@H]1O [Compound 2, Methyl 6-phenyl-4-(trifluoromethyl)-1-(((2R,3S,4S,5S,6R)-3,4,5-trihydroxy-6-(hydroxymethyl)tetrahydro-2H-pyran-2-yl)oxy)-1H-indole-2-carboxylate] | potent, dose-dependent reduction in lactate production | inhibition at 50 µM [2]: 55%
3 | COC(=O)c1cc2c(C(F)(F)F)cc(-c3ccccc3)cc2n1O[C@@H]1O[C@H](CO)[C@H](O)[C@@H](O)[C@H]1O [Compound 3, Methyl 6-phenyl-4-(trifluoromethyl)-1-(((2S,3R,4R,5R,6R)-3,4,5-trihydroxy-6-(hydroxymethyl)tetrahydro-2H-pyran-2-yl)oxy)-1H-indole-2-carboxylate] | noticeable dose-dependent activity | –
4 | COC(=O)c1cc2c(C(F)(F)F)cc(-c3ccccc3)cc2n1O[C@@H]1O[C@H](CO)[C@@H](O)[C@H](O)[C@H]1NC(C)=O [Compound 4, Methyl 1-(((2S,3R,4R,5S,6R)-3-acetamido-4,5-dihydroxy-6-(hydroxymethyl)tetrahydro-2H-pyran-2-yl)oxy)-6-phenyl-4-(trifluoromethyl)-1H-indole-2-carboxylate] | lacked any significant activity | –
5 | COc1cc([C@@H]2c3cc4c(cc3[C@@H](O[C@@H]3O[C@@H]5CO[C@@H](C)O[C@H]5[C@H](O)[C@H]3O)[C@H]3COC(=O)[C@H]23)OCO4)cc(OC)c1O [etoposide, reference compound] | – | effect on lactate production (in words) ([1]; 10 μM): negligible effects
